Experimental data published in PubChem BioAssay AID624417 (National Center for Advancing Translational Sciences (NCATS), 2012).
Screen size: about 410,000 compounds; about 6,400 (1.6%) were called active. The inconclusive results got no clear call from the source; some entries with a clear call stand among them for comparison. Calls follow the shape of the dose curve; as a rule, active = well fitted inhibition curve with a large enough effect; inconclusive = small, poorly fitted or top-dose-only effect; inactive = no such curve, though single readings can be large or run the other way. No potency is given beside an inconclusive call; the fits are too rough.
% is scaled to controls: 0 for no effect and ±100 for the full control effect; potency is read from the fitted curve at half-maximal effect; tags tell the direction and shape of the fitted curve.
Also: nearly all actives have a fitted effect of over 55% in size.

What follows are compounds tested against Glucagon-like peptide 1 receptor (Homo sapiens) (UniProt P43220) (assay: qHTS of GLP-1 Receptor Inverse Agonists (Inhibition Mode)). Conditions: HEK293 GLP-1R CRE-luciferase, luminescence, 24 h, GLP-1R form is constitutively active; activity change, negative = inhibition: at 38.3 µM (top of the series) unless noted.
Sequence of UniProt P43220 (P43220 whole entry, looked up): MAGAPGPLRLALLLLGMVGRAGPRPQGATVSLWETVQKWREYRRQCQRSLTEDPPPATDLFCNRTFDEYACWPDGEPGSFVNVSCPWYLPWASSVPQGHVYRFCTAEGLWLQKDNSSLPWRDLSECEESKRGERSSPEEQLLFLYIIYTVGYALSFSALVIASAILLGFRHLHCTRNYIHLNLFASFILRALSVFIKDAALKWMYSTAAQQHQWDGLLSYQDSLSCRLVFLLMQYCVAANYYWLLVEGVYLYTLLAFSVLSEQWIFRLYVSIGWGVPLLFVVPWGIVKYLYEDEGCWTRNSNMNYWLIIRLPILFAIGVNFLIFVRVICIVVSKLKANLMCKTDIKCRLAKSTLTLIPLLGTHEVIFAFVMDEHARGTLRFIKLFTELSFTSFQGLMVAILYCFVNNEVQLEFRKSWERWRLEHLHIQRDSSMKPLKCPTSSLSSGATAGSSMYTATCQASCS
How it was run: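 HEK293 cells stably co-expressing constitutively active GLP-1R and a cAMP-responsive luciferase reporter were seeded in DMEM with 10% Nu serum, given compounds after 12 h, and incubated 24 h at 37 deg C. Luminescence was then read.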
With `Cc1nc(NC(C)c2ccccc2)c2oc3ccccc3c2n1` (stereo not given) the Potency was inconclusive [inhibitor, single point].
`Cn1nnnc1SCc1cccc(CSc2nnnn2C)n1` was tested, and the “activity change, negative = inhibition” value was inactive: 5.93%.
With `O=C(COC(=O)c1c(Cl)cccc1Cl)Nc1ccccc1Br` the Potency was inconclusive [inhibitor, single point].
`COc1ccc(OC)c(S(=O)(=O)N2CCC(C(=O)N3CCc4ccccc4C3)CC2)c1` was tested, and the Potency was inconclusive [inhibitor, full curve, poor fit].
In the case of `c1ccc2c(c1)[nH]c1c(N3CCN(C4CCCCC4)CC3)ncnc12`, the Potency was inconclusive [inhibitor, single point].
`Cc1cc(NC(=O)c2cc3n(n2)C(C(F)(F)F)CC(c2ccco2)N3)n(-c2ccccc2)n1` (stereo not given) was tested, and the Potency was inconclusive [inhibitor, single point].
With `CC(C)OC(=O)CC(=O)CSc1nc(-c2ccc(F)cc2)cc(-c2ccccc2)c1C#N` the Potency was inconclusive [inhibitor, partial curve, poor fit].
`CN1CCN(c2ccc(CNS(=O)(=O)Cc3cccc(C(F)(F)F)c3)cc2)CC1` was tested, and the Potency was inconclusive [inhibitor, partial curve, poor fit].
With `COc1ccc(C(C)=O)cc1Cn1c(C)c(C(=O)NCCC#N)sc1=O` the “activity change, negative = inhibition” value was inactive: 23.6%.
For `COc1ccc(C(=O)/C=C/C(=O)N(Cc2ccccc2)C(C(=O)NC2CCCCC2)c2ccncc2)c(O)c1` (stereo not given), the Potency was inconclusive [inhibitor, single point].
With `CCOC(=O)c1ccc(NCc2ccc3c(c2)OCO3)cc1` the Potency was inconclusive [inhibitor, single point].
With `CCOC(=O)c1ccc(NC(=O)Nc2ccc(OC)c(OC)c2)cc1` the Potency was inconclusive [inhibitor, partial curve, poor fit].
In the case of `CC1=C(C(=O)Nc2ccccc2)C(c2ccc[nH]2)n2ncnc2N1` (stereo not given), the “activity change, negative = inhibition” value was inactive: 13.6%.
For `CC(NC(=O)COC(=O)c1cc2ccccc2cc1O)c1ccccc1` (stereo not given), the Potency was inconclusive [inhibitor, single point].
`CC(C)(C)c1ccc(C(=O)Nc2cccc3c(=O)[nH][nH]c(=O)c23)cc1` was tested, and the Potency was inconclusive [inhibitor, partial curve, poor fit].
With `CN(CC(=O)Nc1ccc(Cl)c(Cl)c1)C1CCCCC1` the Potency was inconclusive [inhibitor, partial curve, poor fit].
With `COC(=O)c1ccc(N2CCCCC2)c(NC(=O)c2ccco2)c1` the Potency was inconclusive [inhibitor, single point].
With `O=C(CCl)N1CCN(S(=O)(=O)c2ccc3c(c2)CCC3)CC1` the Potency was inconclusive [inhibitor, partial curve, poor fit].
`CCCCN(CC)CCNC(=O)c1cc2c(=O)[nH]c3ccccc3c2s1` was tested, and the Potency was inconclusive [inhibitor, partial curve, poor fit].
With `OC1(C#Cc2c(-c3ccsc3)oc3ccc(N4CCOCC4)cc23)CCCCC1` the Potency was inconclusive [inhibitor, full curve, poor fit].
`CCCN1CCc2c(sc3nc(SC)n(-c4ccccc4)c(=O)c23)C1` was tested, and the Potency was inconclusive [inhibitor, partial curve, poor fit].
`Cc1nn(Cc2ccccc2)c(=O)n1N(C)c1ncc(C(F)(F)F)cc1Cl` was tested, and the Potency was inconclusive [inhibitor, single point].
With `CCOc1ncccc1C(=O)Nc1cc(S(=O)(=O)N2CCCCCC2)ccc1OC` the “activity change, negative = inhibition” value was inactive: -7.32%.
With `COCc1c(C(=O)N2CCN(CCOc3ccccc3)CC2)oc2ccccc12` the Potency was inconclusive [inhibitor, single point].
`COc1cccc(C(C)(O)c2nc(-c3ccccc3)cs2)c1` (stereo not given) was tested, and the Potency was inconclusive [inhibitor, single point].
`Cn1c(=O)c([N+](=O)[O-])c(NCCCn2ccnc2)c2ccccc21` was tested, and the “activity change, negative = inhibition” value was inactive: -1.1%.
For `C=CCc1cccc(/C=N/NC(=O)COc2ccc(-n3cnnn3)cc2)c1O`, the Potency was inconclusive [inhibitor, partial curve, poor fit].
`CC1CCCCN1S(=O)(=O)c1ccc(C(=O)Nc2nnc(-c3ccccc3Cl)o2)cc1` (stereo not given) was tested, and the Potency was inconclusive [inhibitor, partial curve].
With `Cc1cccc(C)c1N1CCN(C(c2ccnc3ccccc23)c2nnnn2-c2ccc3c(c2)OCCO3)CC1` (stereo not given) the Potency was inconclusive [inhibitor, partial curve, poor fit].
With `COc1ccc(-c2c(-c3ccc(OCC(=O)NN)cc3O)n[nH]c2C(F)(F)F)cc1` the Potency was inconclusive [inhibitor, partial curve, poor fit].
For `CCOC(=O)/C(=N\Nc1ccc(C(C)=O)cc1)c1csc(Nc2ccccc2)n1`, the Potency was inconclusive [inhibitor, single point].
For `Cc1cc(C(=O)Nc2ccc(N3CCCCC3)cc2)no1`, the Potency was inconclusive [inhibitor, partial curve, poor fit].
For `O=C(c1ccc2c(c1)N(Cc1ccc(Cl)cc1)C(=O)c1ccccc1S2=O)N1CCC(Cc2ccccc2)CC1` (stereo not given), the Potency was inconclusive [inhibitor, partial curve].
In the case of `COc1ccc(C(=O)NCCCC2CCCC2)cc1OC1CCN(C(C)C)CC1`, the Potency was inconclusive [inhibitor, single point].
In the case of `Cc1nc2c(=O)n(C)c(=O)[nH]c2n1Cc1ccccc1`, the “activity change, negative = inhibition” value was inactive: 4.52%.
With `Cc1nc2ccccc2n1CCc1ccccc1` the Potency was inconclusive [inhibitor, single point].
`O=C(NCCCc1nc2ccccc2n1Cc1cccc(Cl)c1)C1CCCCC1` was tested, and the Potency was inconclusive [inhibitor, partial curve, poor fit].
With `CSc1ncc(C(C)=O)c(C)n1` the “activity change, negative = inhibition” value was inactive: 7.38%.
In the case of `COc1cccc(NC(=O)NCCCCc2ccccc2)c1`, the Potency was inconclusive [inhibitor, single point].
For `Cc1cccc(N2CCN(C(=O)CNC(=O)c3ccccc3)CC2)c1C`, the Potency was inconclusive [inhibitor, partial curve].
